# PubChem BioAssay AID686978 (National Center for Advancing Translational Sciences (NCATS), 2013)
# “And” between values parts separate entries of the source, which are not always exact repeats. Identical values can stand only once. About 64,000 (15%) of roughly 420,000 compounds were called active. The shares of active, inactive and inconclusive entries below differ from those in the screen. Calls follow the shape of the dose curve; as a rule, active = well fitted inhibition curve with a large enough effect; inconclusive = small, poorly fitted or top-dose-only effect; inactive = flat fitted curve, though single readings scatter. Potencies of inconclusive entries are left out as doubtful fits.
# Assay: qHTS for Inhibitors of human tyrosyl-DNA phosphodiesterase 1 (TDP1): qHTS in cells in absence of CPT; also: nearly all actives have a fitted effect of over 55% in size
# Conditions: DT40 Tdp1-/- hTDP1 cells, no CPT, ATP luminescence, 48 h; activity change, negative = growth inhibition: at 46.2 µM (top of the series)
# How it was run: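 Stably hTDP1-transfected Tdp1-null chicken DT40 cells were treated with library compounds minus camptothecin and grown for at least 48 hr at 37 °C, after which cellular ATP was quantified by luminescence.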
# % is scaled to controls: 0 for no effect and ±100 for the full control effect; potency is read from the fitted curve at half-maximal effect; tags tell the direction and shape of the fitted curve.
SMILES,Potency,"activity change, negative = growth inhibition"
CCCCc1c(Cc2ccccc2)ncn1CCc1ccccc1OC,active: 5.17 µM,–
CCCn1c(SCC(=O)Nc2nnc(C)s2)nnc1-c1ccoc1C,"inconclusive [inhibitor, single point]",–
Cc1ccc(C)c(Cn2c(=O)c3c(nc4n3CCN4Cc3ccco3)n(C)c2=O)c1,"inconclusive [inhibitor, partial curve]",–
CCOc1cc(C(Nc2cc(C)ccn2)c2ccc3cccnc3c2O)ccc1OC (configuration not stated),"inconclusive [inhibitor, single point]",–
O=C(O)CSCc1nc2cccnc2n1C1CCCCC1,"inconclusive [inhibitor, full curve, poor fit]",–
CN(C)CCN(C(=O)C1CCCCC1)c1nc2cc3c(cc2s1)OCCO3,active: 9.2 µM,–
CC(C)C[C@@H](C(=O)NCC1CCCO1)N1C(=O)N2CCc3c([nH]c4ccccc34)[C@@]2(C)C1=O (some centres not stated),inactive,–
O=C(/C=C/c1cnc2ccccc2n1)NC12CC3CC(CC(C3)C1)C2,"inconclusive [inhibitor, single point]",–
COc1ccc(NC(C#N)c2ccccc2OCc2ccccc2)cc1 (configuration not stated),"inconclusive [inhibitor, single point]",–
CCN(CC)S(=O)(=O)c1ccc(NCc2ccccc2)nc1,inactive,–
CCCC(=O)Nc1ccc2c(c1)nc1n2CCN(CCOC)C1,inactive,–
COc1ccc(C(CCN(Cc2ccc(OC)c(OC)c2)C(C)=O)C(C)C)cc1 (configuration not stated),"inconclusive [inhibitor, partial curve]",–
CC(=O)NCCNc1ncnc2ccc(-c3ccccc3C)cc12,"inconclusive [inhibitor, single point]",–
COc1ccc(C(=O)NC(=S)Nc2ccc(CN3CCOCC3)cc2)cc1OC,active: 20.6 µM,–
Cc1ccc(C#N)c(SCCN2CCCCC2)n1,inactive,–
O=C(COc1ccc(Br)cc1)N1CCN(c2ccccc2)CC1,"inconclusive [inhibitor, single point]",–
COc1ccc(-c2n(CC(=O)OC3CC(C)CCC3C(C)C)c3ccccc3[n+]2C)cc1 (configuration not stated),active: 0.411 µM,–
COc1ccccc1NC(C)C(=O)N/N=C/c1ccccc1OCc1cccc(Br)c1 (configuration not stated),"inconclusive [inhibitor, single point]",–
COc1cccc(NC(=S)N2CCC(C(=O)c3ccc(F)cc3)CC2)c1,"inconclusive [inhibitor, single point]",–
C/C=C/c1cccc(-c2nc(C(=O)NC3CCC3)cc3c2[C@@H](CCO)N(S(=O)C(C)(C)C)C3)c1 (some centres not stated),"inconclusive [inhibitor, single point]",–
CC(C)N(C(=O)[C@H]1CC(CC(=O)NCc2cccc(C(F)(F)F)c2)C(=O)N2CCc3c([nH]c4ccccc34)[C@]12C)C(C)C (some centres not stated),active: 23.1 µM,–
Cc1ccc(OCCSCc2nnc(NC(=O)Nc3cccc(Cl)c3)s2)cc1,active: 4.61 µM,–
Cc1ccc2c(CN3CCN(Cc4ccccc4)CC3)cc(=O)oc2c1C,active: 18.4 µM,–
CCOC(=O)c1ccc(N(CCC2CO2)S(=O)(=O)c2ccc(C)cc2)cc1 (configuration not stated),"inconclusive [inhibitor, single point]",–

SMILES,Potency,"activity change, negative = growth inhibition"
CC(=O)NC1=NN(C(C)=O)C(c2ccccc2)S1 (configuration not stated),"inconclusive [inhibitor, single point]",–
N#Cc1cccc(NC(=O)c2cc(C3CCCCN3C(=O)c3ccccn3)on2)c1 (configuration not stated),"inconclusive [inhibitor, single point]",–
CCCCCCCCN1C(=O)[C@H](CC(=O)NCC23CC4CC(CC(C4)C2)C3)C[C@@]2(C(=O)OCC)CCC=C12,active: 16.4 µM,–
Cc1nc(-c2cccc(NS(=O)(=O)c3ccccc3)c2)cs1,inactive,–
Cc1ccc(N(C)S(=O)(=O)c2cccc(C(=O)N(C)Cc3cnn(-c4ccccc4)c3)c2)cc1,"inconclusive [inhibitor, single point]",–
COc1ccc(-c2cccc(-c3cc(=O)oc4ccc(C(C)(C)C)cc34)c2)cc1,"inconclusive [inhibitor, single point]",–
CCC(C)(C)NC(=O)C(c1sccc1C)N(Cc1ccco1)C(=O)c1csnn1 (configuration not stated),active: 16.4 µM,–
COC(=O)c1sc(-c2ccccc2)cc1NC(=O)c1cccc(Cl)c1,"inconclusive [inhibitor, single point]",–
COc1ccc(CCNC(=O)c2cc(COc3c(F)cccc3F)on2)c(OC)c1,"inconclusive [inhibitor, single point]",–
O=C(Oc1nsnc1N1CCOCC1)N1CCCCC1,–,inconclusive: -30.7% [inhibitor]
CCc1nc2c(OCCOc3ccc(F)cc3)cccn2c1N(C=O)Cc1ccccc1,"inconclusive [inhibitor, single point]",–
Cc1cccc(NC(=O)CCNC(=O)c2ccccc2)c1,inactive,–
O=C(CCc1nc2ccccc2c(=O)[nH]1)Nc1nc(-c2cccs2)cs1,"inconclusive [inhibitor, single point]",–
Cc1ccc(C(=O)Nc2cccc(-c3cn4ccccc4n3)c2)cc1,"inconclusive [inhibitor, single point]",–
CCn1c(SCC(=O)Nc2ccc(N3CCOCC3)cc2)nnc1-c1ccncc1,inactive,–
Cc1ccc2c(c1)c1nnc(SCC(=O)N3CCCc4ccccc43)nc1n2CC(=O)O,inactive,–
CN(C)c1ccc(C(=C2C=CC(=[N+](C)C)C=C2)c2ccc(N(C)C)cc2)cc1,active: 398 nM and active: 266 nM and active: 517 nM,–
O=C1C2C3C=CC(C4CC34)C2C(=O)N1/N=C/c1ccc(-c2ccc(Cl)cc2[N+](=O)[O-])o1 (configuration not stated),"inconclusive [inhibitor, single point]",–
NS(=O)(=O)c1ccc(CCNC(=O)Nc2ccc(Cl)c(Cl)c2)cc1,active: 23.1 µM,–
CCCCc1nc(SCC(=O)N2CCCCC2)c2c(=O)n(C)c(=O)n(C)c2n1,"inconclusive [inhibitor, single point]",–
CNC(=S)N/N=C/c1ccc2c(c1)OCCO2,inactive,–
CN(C)CCSc1nnc2sc3ccccc3n12,inactive,–
CC(=O)c1cccc(NC(=O)C2CCCN(S(=O)(=O)c3cccc4nonc34)C2)c1 (configuration not stated),inactive,–
O=C(C1CCC(Cn2c(=O)c3sccc3n(Cc3ccccc3F)c2=O)CC1)N1CCOCC1 (configuration not stated),"inconclusive [inhibitor, single point]",–

SMILES,Potency,"activity change, negative = growth inhibition"
O=C(Nc1ccc(Cl)cc1Cl)N1CCN(c2ncccn2)CC1,"inconclusive [inhibitor, partial curve]",–
Cc1cc(NC(=O)c2ccc3nccnc3c2)ccc1Br,"inconclusive [inhibitor, single point]",–
COC(=O)c1sc2ncccc2c1OCc1ccc(Cl)cc1Cl,"inconclusive [inhibitor, partial curve]",–
CC1CC(C)CN(C(=O)CSCC(=O)O)C1 (configuration not stated),inactive,–
CN(C)CCNc1nccc(N2CCN(C)CC2)n1,inactive,–
Clc1ccc(-c2ccc(-c3nn4c(-c5ccco5)nnc4s3)o2)cc1,active: 10.3 µM,–
Cn1c(=O)c2[nH]c(CN3CCCCC3)nc2n(C)c1=O,inactive,–
Cc1cc(C)cc(-c2nnc(SCc3ccc(C(=O)O)cc3)o2)c1,"inconclusive [inhibitor, full curve]",–
O=C(Nc1ccc(Oc2cccnc2)cc1)c1cccc([N+](=O)[O-])c1,"inconclusive [inhibitor, single point]",–
COc1ccc(C)cc1S(=O)(=O)N1CCN(S(=O)(=O)c2cc(C(=O)O)ccc2C)CC1,inactive,–
CCC(C)(C)NC(=O)C(c1cccc(OC)c1OC)N(C(=O)CCC(=O)Nc1cc(C)on1)c1ccc2c(c1)OCCO2 (configuration not stated),"inconclusive [inhibitor, partial curve]",–
COCc1ccc(C(=O)N2CCCC(Nc3ccc(C(C)C)cc3)C2)o1 (configuration not stated),active: 18.4 µM,–
COc1cc(OC)c(N(C)S(=O)(=O)c2cccc(C(=O)NC3=NCCS3)c2)cc1Cl,"inconclusive [inhibitor, single point]",–
CC(=O)c1ccc(O)c(CO)c1,inactive,–
O=C(Nc1nc(-c2ccccc2)ns1)c1ccc(Cl)cc1,inactive,–
COc1ccccc1N(C)S(=O)(=O)c1ccc(C(=O)Nc2cc(OC)c(OC)c(OC)c2)cc1,active: 11.6 µM,–
CC1(C(=O)N2CCC(CC3CC(c4cccc(Br)c4)=NO3)(C(=O)NCC3CCCCC3)CC2)CC1 (configuration not stated),active: 18.4 µM,–
CCOC(=O)Cn1nnnc1C(C(C)C)N(Cc1cccs1)Cc1cc2cc(C)ccc2[nH]c1=O (configuration not stated),"inconclusive [inhibitor, single point]",–
Cc1ccnc(NS(=O)(=O)c2ccc(NC(=O)Cc3ccc(Cl)cc3)cc2)n1,inactive,–
O=C(Cn1cnc2ccccc2c1=O)c1c[nH]c2ccccc12,"inconclusive [inhibitor, single point]",–
Clc1ccccc1-c1nnc2sc(CCc3ccccc3)nn12,"inconclusive [inhibitor, single point]",–
N#CC1(CCCN2CCCCC2)c2ccccc2CCc2ccccc21,"inconclusive [inhibitor, single point]",–
CCOC(=O)C1CCN(C(=O)c2sc3ncn(CC(=O)N4CCCCC4)c(=O)c3c2C)CC1,inactive,–
CCN(CC)c1ccc(NC(=O)C2CCN(S(=O)(=O)c3ccc4c(c3)oc(=O)n4C)CC2)c(C)c1,"inconclusive [inhibitor, partial curve, poor fit]",–
